Source: patent US20200392181A1, “PEPTIDE COMPOSITIONS AND RELATED METHODS” (Allegro Pharmaceuticals, LLC, priority 2017, published 2020)
Not every detail of the peptide structures is certain; ends, links or a residue may be inferred. Some compounds share one wording; it may come from a single statement. Square brackets hold non-standard residues; d marks the D form. Peptide text beside a SMILES is read from it. Cya = N[C@@H](CS(=O)(=O)O)C(=O)O

tested on: ischemia-induced retinal neovascularization; assay: Mouse model of retinopathy of prematurity (ROP), ischemia-induced retinal neovascularization; assay type: in vivo, C57BI/6 mice; details: intravitreal injection of 1.0 microliters containing 20 micrograms Test Compound
Protocol: Each test compound was prepared in sterile water for injection, containing 0.08 mg/100 μL of sodium chloride and 0.005 mg/100 μL of trisodium citrate, the concentration of the peptide was at a concentration of 2.0 mg/100 μL and pH=2.7 and dispensed by sterile filtration into sterile vials. The Taurine test compound was obtained from Sigma Aldrich company, which was >99% pure, and prepared the same way as mentioned previously, having a concentration of 3.0 mg/100 μL. […]
To screen the test compounds for activity against ischemia-induced retinal neovascularization, the well-established model of retinopathy of prematurity (ROP) in mice was used. Litters of C57BI/6 mice were placed in 75% oxygen at postnatal day (P) 7, returned to room air at day (P) 12. The Pups were randomly assigned to treatment groups of 4 to 10 animals per group. The pups were treated as follows: Treatment eyes were treated by intravitreal injection of 1.0 microliters of solution containing 20 micrograms of Test Compound.
On post-natal day 17, 5 days after intravitreal injection, the animals were sacrificed, the retinas were flat mounted and the area of neovascularization in each retina was determined by Fluorescein-dextran image analysis.
Applicant has identified the tripeptide R-G-Cysteic(Acid) as an integrin binding motif of the oligopeptide Glycinyl-Arginyl-Glycinyl-Cysteic(Acid)-Threonyl-Proline (ALG-1001 or Luminate®, Allegro Ophthalmics, LLC). The trifluoroacetate (TFA) and acetate salts of the R-G-Cysteic(Acid) tripeptide (Test Compound Nos. 1 and 2) were tested in both the ROP Mouse Model as described above as well as in a mouse model of choroidal neovascularization induced by laser photocoagulation (“CNV Mouse Model”), as generally as described in Lambert, V., et al., Laser-Induced Choroidal Neovascarization Model to Study Age Related Macular Degeneration in Mice, Nature Protocols, 8; 2197-2211 (2013). […] In some of the experiments, an additional “Positive Control” group was included.
The following Table 1 summarizes the neovascularization inhibiting effect of each Test Compound at the dose tested. In each instance, the data was obtained using the ROP Mouse Model, except for the two table entries specifically labeled “CNV”. Only those table entries labeled “CNV” show data obtained from the CNV Mouse Model. Bar graphs showing the test results summarized in Table 1 are also provided herewith as FIGS. 1 through 27.

Compound | Activity At Dose Tested
N=C(N)NCCC[C@H](N)C(=O)NCC(=O)N[C@@H](CS(=O)(=O)O)C(=O)O [compound 1] (H-Arg-Gly-[Cya]-OH) | Active
N=C(N)NCCC[C@H](N)C(=O)NCC(=O)N[C@@H](CS(=O)(=O)O)C(=O)O [compound 2] (H-Arg-Gly-[Cya]-OH) | Active
C[C@H](NC(=O)[C@@H](N)CCCNC(=N)N)C(=O)N[C@@H](CS(=O)(=O)O)C(=O)O [compound 3] (H-Arg-Ala-[Cya]-OH) | Active
N=C(N)NCCC[C@H](N)C(=O)NCC(=O)N[C@@H](CS)C(=O)O [compound 4] (H-Arg-Gly-Cys-OH) | Active
N=C(N)NCCC[C@H](N)C(=O)N[C@@H](CS(=O)(=O)O)C(=O)NCC(=O)O [compound 5] (H-Arg-[Cya]-Gly-OH) | Slightly Active
NCCCC[C@H](N)C(=O)NCC(=O)N[C@@H](CS(=O)(=O)O)C(=O)O [compound 6] (H-Lys-Gly-[Cya]-OH) | Not Active
N=C(N)NCCC[C@H](NC(=O)[C@@H](N)CS(=O)(=O)O)C(=O)NCC(=O)O [compound 8] (H-[Cya]-Arg-Gly-OH) | Slightly Active
N=C(N)NCCC[C@H](NC(=O)CNC(=O)[C@@H](N)CS(=O)(=O)O)C(=O)O [compound 9] (H-[Cya]-Gly-Arg-OH) | Active
C[C@H](NC(=O)[C@@H](N)CS(=O)(=O)O)C(=O)N[C@@H](CCCNC(=N)N)C(=O)O [compound 10] (H-[Cya]-Ala-Arg-OH) | Not Active
N=C(N)NCCC[C@H](NC(=O)[C@H](CS(=O)(=O)O)NC(=O)CN)C(=O)O [compound 11] (H-Gly-[Cya]-Arg-OH) | Not Active
N[C@@H](Cc1c[nH]cn1)C(=O)NCC(=O)N[C@@H](CS(=O)(=O)O)C(=O)O [compound 14] (H-His-Gly-[Cya]-OH) | Slightly Active
N=C(N)NCCC[C@H](N)C(=O)NCC(=O)N[C@@H](CC(=O)O)C(=O)O [compound 15] | Slightly Active
N=C(N)NCCC[C@H](N)C(=O)NCC(=O)N[C@@H](CC(N)=O)C(=O)O [compound 16] (H-Arg-Gly-Asn-OH) | Active
N=C(N)NCCC[C@H](NC(=O)CNC(=O)[C@@H](N)CC(=O)O)C(=O)O [compound 17] (H-Asp-Gly-Arg-OH) | Active
C[C@H](NC(=O)[C@@H](N)CCCNC(=N)N)C(=O)N[C@@H](CCC(=O)O)C(=O)O [compound 19] (H-Arg-Ala-Glu-OH) | Active
NCCCC[C@H](N)C(=O)NCC(=O)N[C@@H](CC(=O)O)C(=O)O [compound 20] (H-Lys-Gly-Asp-OH) | Active
N=C(N)NCCC[C@H](N)C(=O)NCC(=O)N[C@@H](CCC(=O)O)C(=O)O [compound 21] (H-Arg-Gly-Glu-OH) | Not Active

same assay, conditions: intravitreal injection of 1.0 microliters containing 20 micrograms Test Compound at P12, neovascular area at P17, versus Control Peptide Arg-Gly-Glu

Compound | Mean % Reduction of Retinal Neovascularization In ROP Model [%]
N=C(N)NCCC[C@H](N)C(=O)NCC(=O)N[C@@H](CS(=O)(=O)O)C(=O)O [compound 1] (H-Arg-Gly-[Cya]-OH) | 61
N=C(N)NCCC[C@H](N)C(=O)NCC(=O)N[C@@H](CS(=O)(=O)O)C(=O)O [compound 2] (H-Arg-Gly-[Cya]-OH) | 72
C[C@H](NC(=O)[C@@H](N)CCCNC(=N)N)C(=O)N[C@@H](CS(=O)(=O)O)C(=O)O [compound 3] (H-Arg-Ala-[Cya]-OH) | 60
N=C(N)NCCC[C@H](N)C(=O)NCC(=O)N[C@@H](CS)C(=O)O [compound 4] (H-Arg-Gly-Cys-OH) | 66
N=C(N)NCCC[C@H](N)C(=O)N[C@@H](CS(=O)(=O)O)C(=O)NCC(=O)O [compound 5] (H-Arg-[Cya]-Gly-OH) | 33
NCCCC[C@H](N)C(=O)NCC(=O)N[C@@H](CS(=O)(=O)O)C(=O)O [compound 6] (H-Lys-Gly-[Cya]-OH) | 0
N=C(N)NCCC[C@H](NC(=O)[C@@H](N)CS(=O)(=O)O)C(=O)NCC(=O)O [compound 8] (H-[Cya]-Arg-Gly-OH) | 21
N=C(N)NCCC[C@H](NC(=O)CNC(=O)[C@@H](N)CS(=O)(=O)O)C(=O)O [compound 9] (H-[Cya]-Gly-Arg-OH) | 63
C[C@H](NC(=O)[C@@H](N)CS(=O)(=O)O)C(=O)N[C@@H](CCCNC(=N)N)C(=O)O [compound 10] (H-[Cya]-Ala-Arg-OH) | 0
N=C(N)NCCC[C@H](NC(=O)[C@H](CS(=O)(=O)O)NC(=O)CN)C(=O)O [compound 11] (H-Gly-[Cya]-Arg-OH) | 0
N[C@@H](Cc1c[nH]cn1)C(=O)NCC(=O)N[C@@H](CS(=O)(=O)O)C(=O)O [compound 14] (H-His-Gly-[Cya]-OH) | 28
N=C(N)NCCC[C@H](N)C(=O)NCC(=O)N[C@@H](CC(=O)O)C(=O)O [compound 15] | 37
N=C(N)NCCC[C@H](N)C(=O)NCC(=O)N[C@@H](CC(N)=O)C(=O)O [compound 16] (H-Arg-Gly-Asn-OH) | 64
N=C(N)NCCC[C@H](NC(=O)CNC(=O)[C@@H](N)CC(=O)O)C(=O)O [compound 17] (H-Asp-Gly-Arg-OH) | 56
C[C@H](NC(=O)[C@@H](N)CCCNC(=N)N)C(=O)N[C@@H](CCC(=O)O)C(=O)O [compound 19] (H-Arg-Ala-Glu-OH) | 63
NCCCC[C@H](N)C(=O)NCC(=O)N[C@@H](CC(=O)O)C(=O)O [compound 20] (H-Lys-Gly-Asp-OH) | 40
N=C(N)NCCC[C@H](N)C(=O)NCC(=O)N[C@@H](CCC(=O)O)C(=O)O [compound 21] (H-Arg-Gly-Glu-OH) | 0
